Measurements from PubChem BioAssay AID360 (National Center for Advancing Translational Sciences (NCATS), 2006).
About 550 (1.1%) of roughly 48,000 compounds were called active. Not shown: some 4% with an inconclusive outcome. No stated cut-off is given here; in the data, active means potency below about 15 µM; inconclusive means mostly about 16 µM to 33 µM; inactive means weaker than that. The list shows a part of the results.

Each compound was assayed against Lysosomal acid glucosylceramidase (Homo sapiens) (UniProt P04062) (assay: Glucocerebrosidase). Details: purified enzyme, resorufin glucoside fluorescence (screen aimed at inhibitors), 20 min.
Summary of the method: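 Wild-type enzyme at 0.2 nM final in 50mM citric acid/KH2PO4, 10mM sodium taurocholate, 0.01% tween-20, pH 5.9, with resorufin beta-D-glucopyranoside at 30 uM final. Compounds titrated, 20 min at RT, red fluorescence read; AC50 from titration.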
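Further: the screen sought inhibitors.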
Potency means the concentration at half of the fitted maximal effect.

Chain of UniProt P04062 (P04062 whole entry, looked up): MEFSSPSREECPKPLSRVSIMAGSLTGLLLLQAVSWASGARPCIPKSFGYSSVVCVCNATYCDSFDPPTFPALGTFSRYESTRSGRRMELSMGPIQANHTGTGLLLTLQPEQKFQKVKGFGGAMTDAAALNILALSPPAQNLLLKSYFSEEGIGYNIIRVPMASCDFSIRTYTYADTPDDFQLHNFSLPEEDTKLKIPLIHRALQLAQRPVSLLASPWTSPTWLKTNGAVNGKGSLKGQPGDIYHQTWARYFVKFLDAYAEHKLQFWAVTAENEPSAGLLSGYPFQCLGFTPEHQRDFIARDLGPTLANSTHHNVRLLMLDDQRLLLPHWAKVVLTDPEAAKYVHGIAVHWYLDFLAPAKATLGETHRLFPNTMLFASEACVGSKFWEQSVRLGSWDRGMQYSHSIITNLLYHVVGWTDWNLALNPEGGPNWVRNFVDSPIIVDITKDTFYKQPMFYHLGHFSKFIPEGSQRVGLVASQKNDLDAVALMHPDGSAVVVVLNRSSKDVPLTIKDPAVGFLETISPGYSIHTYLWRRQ

| Structure (SMILES) | Potency |
| --- | --- |
| COc1ccc(-n2nc(C(=O)Nc3ccc4c(c3)OCO4)c3ccccc3c2=O)cc1 | inactive: > 76.9 µM |
| CCCCSc1nnc2nc(C)cc(C)n12 | inactive: > 76.9 µM |
| C=CCC(CC=C)(C(=O)O)c1ccccc1 | inactive: > 76.9 µM |
| CS(=O)(=O)N1CCN(CC2CC3C=CC2C3)CC1 (configuration not stated) | inactive: > 76.9 µM |
| Cc1nc2ccc(S(=O)(=O)NC(CC(C)C)C(=O)O)cc2s1 (configuration not stated) | inactive: > 76.9 µM |
| Cc1cc(C(=O)CSc2nnc(C3COc4ccccc4O3)n2C)c(C)n1-c1ccc(F)cc1 (configuration not stated) | inactive: > 76.9 µM |
| COCCCn1c(=O)c2ccccc2c2ccccc2c1=O | inactive: > 76.9 µM |
| Cc1nc2sc3c(c2c2nnc(SCC(=O)NCc4ccco4)n12)CCCC3 | inactive: > 76.9 µM |
| CN1C(=O)c2ccccc2N(C)C1c1ccc2c(c1)OCO2 (configuration not stated) | inactive: > 76.9 µM |
| Cc1ccc([C@@H]2C3COCC=C3C(C#N)=C(N)C2(C#N)C#N)o1 (some centres not stated) | inactive |
| Nc1nc2nonc2nc1N1CCCCC1 | inactive: > 76.9 µM |
| O=C(c1ccco1)N1CCN(CC(=O)N2CCCc3c2c(=O)oc2ccc(O)cc32)CC1 | inactive: > 76.9 µM |
| CCn1nnnc1NCc1ccc(N2CCCC2)cc1 | inactive: > 76.9 µM |
| CCOC(=O)c1cccc(NC(=O)C2CCN(S(=O)(=O)c3cccs3)CC2)c1 | inactive |
| CCc1nnc(NC(=O)CSc2nnc3c4ccccc4n(C)c3n2)s1 | inactive: > 76.9 µM |
| CCOCCn1c(CN2CCN(c3ccc(F)cc3)CC2)nc2c1c(=O)n(C)c(=O)n2C | inactive: > 76.9 µM |
| Cc1cc2ncn(C(=O)N3CCCCC3)c2cc1C | inactive: > 76.9 µM |
| Cc1ccc(S(=O)(=O)N2CCC(C(=O)NCCN3CCCCCC3)CC2)cc1 | inactive: > 76.9 µM |
| O=C(CSc1nc(-c2ccco2)cc(C(F)(F)F)n1)Nc1ccc2c(c1)CCC2 | inactive: > 76.9 µM |
| CC(C)=CC(=O)NCCc1ccccc1 | inactive: > 76.9 µM |
| CCN(c1cccc(C(F)(F)F)c1)S(=O)(=O)c1ccc2c(c1)CCN2C(C)=O | inactive: > 76.9 µM |
| Cc1cnc(C(=O)Nc2ccc(N3CCOCC3)cc2)cn1 | inactive: > 76.9 µM |
| CCOC(=O)c1cnc(-n2nc(C)cc2C)nc1N(C)C | inactive: > 76.9 µM |

| Structure (SMILES) | Potency |
| --- | --- |
| Cn1c(CNC(=O)Nc2ccccc2Cl)nnc1SCc1ccccc1 | inactive: > 76.9 µM |
| COC(=O)c1[nH]c2cccc(OC)c2c1NC(=O)CCN1CCN(c2cccc(Cl)c2)CC1 | inactive: > 76.9 µM |
| COCCNC(=O)c1ccc(Cl)c(Cl)c1 | inactive: > 76.9 µM |
| COc1ccc(NC(=O)c2cccc(Cn3cc(Br)cn3)c2)cn1 | inactive: > 76.9 µM |
| CCOc1ccc(OCC)c(NC(=O)CCn2c(=O)oc3ccccc32)c1 | inactive: > 76.9 µM |
| CC(=O)NC(CC(=O)Nc1ccc(S(=O)(=O)N2CCCC2)cc1)c1ccccc1 (configuration not stated) | inactive: > 76.9 µM |
| CCOc1ccc(-c2cc(CCCC(=O)NCCc3ccc(OC)c(OC)c3OC)no2)cc1 | inactive: > 76.9 µM |
| Cc1cc(NS(=O)(=O)c2ccccc2)n(-c2ccccc2)n1 | inactive: > 76.9 µM |
| COc1ccc(-c2cc(-c3cccs3)c(C#N)c(SCC(=O)NCc3ccco3)n2)cc1 | inactive: > 76.9 µM |
| CCOC(=O)CSc1nnc(CSc2nc(C)cc(C)n2)n1Cc1ccco1 | inactive: > 76.9 µM |
| Cc1cc(NC(=O)CCC(=O)N(CC(=O)NC2CCCC2)Cc2ccc(F)cc2)no1 | inactive: > 76.9 µM |
| CSc1ccc(/C=N/n2nnnc2N)cc1 | inactive: > 76.9 µM |
| CCOC(=O)CC1C(=O)NCCN1C(=O)Nc1ccccc1 (configuration not stated) | inactive: > 76.9 µM |
| Cc1ccc(CN(Cc2cccnc2)C(=O)CN2C(=O)COc3ccccc32)o1 | inactive: > 76.9 µM |
| COCC(C)n1c(COc2ccccc2F)nnc1SCc1c(C)noc1C (configuration not stated) | inactive: > 76.9 µM |
| CN(CC(=O)NCc1cccc(F)c1)C(=O)c1ccco1 | inactive: > 76.9 µM |
| COC(=O)CSc1nc(N)c(C#N)c(C(C)C)c1C#N | inactive: > 76.9 µM |
| O=C(CSc1nccn1-c1ccc(F)cc1)Nc1ccc2c(c1)OCO2 | inactive: > 76.9 µM |
| CCOc1ccccc1C(=O)N(Cc1ccco1)C1CCS(=O)(=O)C1 (configuration not stated) | inactive: > 76.9 µM |
| COC(=O)CSc1nsc(SCC(=O)OC)n1 | inactive: > 76.9 µM |
| O=C1CCCN1CCC1CCN(C2CC(=O)N(Cc3ccc(N4CCCC4=O)cc3)C2=O)CC1 (configuration not stated) | inactive: > 76.9 µM |
| Cc1ccc(C)c(N(C(=O)Cn2nnc(-c3cccs3)n2)C(C(=O)NC2CC2)c2ccc(C)o2)c1 (configuration not stated) | active: 12.1 µM |
| O=C(Cn1c(C(=O)NCc2ccco2)cc2sccc21)c1ccccc1 | inactive: > 76.9 µM |

| Structure (SMILES) | Potency |
| --- | --- |
| O=c1[nH]c(Cn2nnc(-c3ccccc3)n2)nc2scc(-c3ccccc3)c12 | inactive: > 76.9 µM |
| Cc1cnc(NC(=O)CSc2nnc(Cc3ccccc3)o2)s1 | inactive: > 76.9 µM |
| Cc1cc(=S)cc(C)n1CCCn1ccnc1 | inactive: > 76.9 µM |
| CCOC(=O)c1c(NC(=O)c2cccs2)sc(C(=O)N2CCOCC2)c1C | inactive: > 76.9 µM |
| COC(=O)CSc1nc(NCC(C)C)nc(N2CCOCC2)n1 | inactive: > 76.9 µM |
| Cc1cccnc1NCc1ccc(O)c2ncccc12 | inactive: > 76.9 µM |
| COc1ccc(S(=O)(=O)Nc2ccc(C(F)(F)F)cc2)cc1OC | inactive: > 76.9 µM |
| COc1ccc(-c2noc(COc3ccc4c(c3)OCO4)n2)cc1OC | inactive: > 76.9 µM |
| CC(C)NC(=O)COC(=O)c1ccc(O)cc1 | inactive: > 76.9 µM |
| O=C(CCC1CCCCC1)Nc1c[nH]c(=O)[nH]c1=O | inactive: > 76.9 µM |
| O=C(CSc1nc2ccccc2c(=O)n1Cc1ccco1)c1ccccc1 | inactive: > 76.9 µM |
| Cc1ccccc1-c1nnc(SCc2ccccc2)o1 | inactive: > 76.9 µM |
| Cc1cc(=O)n2nc(N3CCCC(C(=O)NCCCN4CCc5ccccc5C4)C3)sc2n1 (configuration not stated) | inactive: > 76.9 µM |
| COC(=O)c1ccc2c(=O)[nH]c(CN3c4ccccc4CC3C)nc2c1 (configuration not stated) | inactive: > 76.9 µM |
| Cc1cc(NC(=O)c2cccnc2)ccc1NC(=O)c1ccco1 | inactive: > 76.9 µM |
| O=C(O)CSc1ncn[nH]1 | inactive: > 76.9 µM |
| CCOc1ccccc1-c1cc(-c2ccc(OC)cc2)nc2c1c(=O)n(C)c(=O)n2C | inactive: > 76.9 µM |
| O=C(NC1CCCC1)c1cnn2c(C(F)(F)F)cc(-c3ccc4c(c3)OCO4)nc12 | inactive: > 76.9 µM |
| O=C(NC1CCC(NC(=O)C2CCCO2)CC1)C1CCCO1 (configuration not stated) | inactive: > 76.9 µM |
| Cc1c(C)c2ccc(OCc3ccc(C(=O)O)o3)c(C)c2oc1=O | inactive: > 76.9 µM |
| Cc1ccc(S(=O)(=O)N2CCC(C(=O)N[C@@H](C)C(=O)NC3CCCCC3)CC2)cc1 | inactive: > 76.9 µM |
| CCn1c(C(O)c2ccc3c(c2)OCO3)nc2ccccc21 (configuration not stated) | inactive: > 76.9 µM |
| CCOc1ccccc1NC(=O)CSc1c(C)n[nH]c1C | inactive: > 76.9 µM |

| Structure (SMILES) | Potency |
| --- | --- |
| Cc1ccc(CNC(=O)c2ccc(Cn3nc(C)c(Cl)c3C)o2)cc1 | inactive: > 76.9 µM |
| COCCn1c(C)cc2c(c1=O)C(c1ccccc1F)C(C#N)=C(N)O2 (configuration not stated) | inactive: > 76.9 µM |
| O=C(Nc1ccc(Cl)cc1)N1CCSCC1 | inactive: > 76.9 µM |
| Cc1cnc(C(=O)OCC(=O)Nc2cccc(Cl)c2)cn1 | inactive: > 76.9 µM |
| CC1(C)CC(NS(=O)(=O)c2ccc(S(=O)(=O)N3CCOCC3)cc2)CCO1 (configuration not stated) | inactive: > 76.9 µM |
| Cc1nc2c(C(=O)NCCC3=CCCCC3)c[nH]n2c(=O)c1Cl | inactive: > 76.9 µM |
| Oc1ccc2c(c1)oc1cc(O)ccc12 | inactive: > 76.9 µM |
| CCCS(=O)(=O)N1CCCC(C(=O)N2CCN(c3ccccc3)CC2)C1 (configuration not stated) | inactive: > 76.9 µM |
| O=S(=O)(Nc1nc2ccccc2nc1Nc1ccc2c(c1)OCCO2)c1cccs1 | inactive: > 76.9 µM |
| CCOC(=O)CSc1nc2ccccc2n2cnnc12 | inactive: > 76.9 µM |
| CCCn1c(SCC(=O)Nc2nnc(-c3ccccc3)s2)nnc1-c1ccccn1 | inactive: > 76.9 µM |
| CCOC(=O)C1=C(c2ccccc2)OC(N)=C(C#N)C1c1ccco1 (configuration not stated) | inactive: > 76.9 µM |
| Cc1ccc(CNC(=O)C2C3C=CC4(CN(Cc5cccnc5)C(=O)C24)O3)cc1 (configuration not stated) | inactive: > 76.9 µM |
| O=C(Cn1c(SCC(=O)N2CCCc3ccccc32)nc2ccccc21)N1CCCC1 | inactive: > 76.9 µM |
| COc1ccc2cc3cc(C(=O)Nc4ccc5c(c4)OCO5)oc3nc2c1 | inactive: > 76.9 µM |
| O=C(Cc1coc2ccc3ccccc3c12)N1CCCC1 | inactive: > 76.9 µM |
| Cc1ccn(CC(=O)O)c(=O)c1 | inactive: > 76.9 µM |
| Nc1ccc(-c2cc(N)n(-c3ccccc3)n2)cc1 | inactive: > 76.9 µM |
| Cn1c(SCc2ccon2)nc2ccccc2c1=O | inactive: > 76.9 µM |
| COC(=O)C1Cc2c([nH]c3ccccc23)CN1 (configuration not stated) | inactive: > 76.9 µM |
| CC1CCN(C(=O)C2CCCN(S(C)(=O)=O)C2)CC1 (configuration not stated) | inactive: > 76.9 µM |
| Cn1c(SCC(=O)NCc2cccs2)nnc1-c1ccc(S(=O)(=O)N2CCCC2)cc1 | inactive: > 76.9 µM |
| O=C(NCCc1ccc2c(c1)OCCO2)c1cc2ccccc2o1 | inactive: > 76.9 µM |
